Several values for one entry are separate records, joined by “and”; a condition that tells them apart may be missing. Identical values can stand only once. Whole data set: some 5,300 compounds, median “PER2::LUC luminescence relative to vehicle control” near 0.96, cut for the highest 2% near 1.3. Some of the results follow.
Test system: mPer2Luc MEF
Assay: PER2::LUC luminescence relative to vehicle control (fold of vehicle); higher = higher PER2::LUC reporter signal
Details: 10 µM
Outline: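 Mouse embryonic fibroblasts carrying the mPer2Luc reporter were seeded at ~3000 cells per well in 384-well plates, 48 h before compounds from commercial libraries were added at 10 μM. Cells were grown in DMEM with 10% FBS at 37 °C and 5% CO2. Luminescence was read with the ONE-Glo luciferase assay system 24 h and 30 h after treatment, followed by an alamarBlue viability assay. The value is PER2::LUC luminescence as fold of vehicle control.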

| Structure (SMILES) | PER2::LUC luminescence (time after treatment 24 h) | PER2::LUC luminescence (time after treatment 30 h) |
| --- | --- | --- |
| CCN(CC)C(=O)[C@@]1(c2ccccc2)C[C@H]1CN | 0.96 | 0.98 |
| NCCC[C@H](N)C(=O)O | 1.04 and 1.03 | 1.01 and 0.936 |
| CO[C@@H]1[C@@H](O[C@@H]2O[C@H](C)[C@@H](O[C@H]3C[C@@](C)(O)[C@@H](O)[C@H](C)O3)[C@H](N(C)C)[C@H]2O)[C@@H](CC=O)C[C@@H](C)[C@@H](O[C@H]2CC[C@H](N(C)C)[C@@H](C)O2)/C=C/C=C/C[C@@H](C)OC(=O)C[C@H]1OC(C)=O | 0.784 | 0.682 |
| N#Cc1ccccc1OCC(O)CNCCNC(=O)Nc1ccccc1 (stereo not given) | 1.04 | 0.956 |
| CNc1nc(Nc2cnn([C@H]3CCN(C4COC4)C[C@@H]3F)c2Cl)ncc1C(F)(F)F | 0.862 | 0.769 |
| NC(=O)N1c2ccccc2C=Cc2ccccc21 | 0.93 | 0.789 |
| CCOC(=O)C1=C(C)NC(C)=C(C(=O)OCC)C1c1c(F)c(F)c(F)c(F)c1F | 1.17 | 1.26 |
| COc1cccc(CNC(=O)Nc2nc(-c3ccncc3)cs2)c1 | 0.558 | 0.601 |
| CC[C@@H](C)[C@@H](O)[C@H](C)C(=O)[C@H](C)/C=C(\C)C[C@H](C)[C@@H]1OC(=O)[C@H]1CC | 1.06 | 0.925 |
| CN(C)CCN(Cc1cccs1)c1ccccn1 | 0.514 | 0.964 |
| O=C(CCCCCCNC(=O)c1cnc(N(c2ccccc2)c2ccccc2)nc1)NO | 0.219 and 0.206 | 0.487 and 0.431 |
| O=c1ncccn1[C@@H]1O[C@H](CO)[C@@H](O)[C@H]1O | 0.999 | 1.07 |
| NC(CO)(CO)CO | 1.09 | 1.21 |
| Clc1cccc(COc2cncc(N3CCNCC3)n2)c1 | 0.246 | 0.301 |
| COc1ccc([C@H]2COc3c(ccc(O)c3OC)C2)c(OC)c1O | 1.08 | 0.987 |
| COc1ccc2c(c1)OCc1c-2oc2cc(OC)ccc12 | 1.52 | 1.8 |
| N=C1Sc2ccccc2C2=NCCCN12 | 0.898 | 0.971 |
| O=C(NCc1ccccc1)OCCO | 0.967 | 1.06 |
| COc1ccc(C(=O)CC2(O)C(=O)Nc3c(Cl)ccc(Cl)c32)cc1 (stereo not given) | 0.483 | 0.461 |
| CCC(=O)N1CCN(C(=O)c2ccccc2)CC1 | 0.96 | 0.875 |
| OC[C@H]1O[C@H]([S-])[C@H](O)[C@@H](O)[C@@H]1O.[Au+] | 0.943 | 0.96 |
| CC(C)(C)Cn1c(N)nc2ccc(-c3[nH]c(C(C)(C)C)nc3-c3ccc(F)cc3)nc21 | 0.886 | 1.09 |

| Structure (SMILES) | PER2::LUC luminescence (time after treatment 24 h) | PER2::LUC luminescence (time after treatment 30 h) |
| --- | --- | --- |
| CCCN[C@H]1CCc2nc(N)sc2C1 | 1.05 and 0.983 and 0.909 | 0.913 and 0.95 and 0.782 |
| CCOC(=O)c1ccc(OC(=O)CCCCCNC(=N)N)cc1 | 0.768 | 0.911 |
| COc1cccc(-c2ccc(NC(=O)C3=C(C(=O)O)CCC3)c(F)c2)c1 | 1.43 | 1.75 |
| Cc1nc2ccccc2n1Cc1ccc(Cl)cc1 | 0.361 | 0.307 |
| CC(C)C[C@H](NC(=O)[C@@H](COC(C)(C)C)NC(=O)[C@H](Cc1ccc(O)cc1)NC(=O)[C@H](CO)NC(=O)[C@H](Cc1c[nH]c2ccccc12)NC(=O)[C@H](Cc1cnc[nH]1)NC(=O)[C@@H]1CCC(=O)N1)C(=O)N[C@@H](CCCNC(=N)N)C(=O)N1CCC[C@H]1C(=O)NNC(N)=O | 1.03 | 1.03 |
| Clc1cccc(-c2nnnn2Cc2cccnc2)c1Cl | 1.04 | 1.05 |
| CNC(=O)c1cc2c(cn1)[nH]c1ccccc12 | 0.997 and 0.875 | 0.958 and 0.981 |
| Cc1cc(=O)oc2cc(O)ccc12 | 1.01 and 1.08 and 0.784 | 0.94 and 0.807 and 0.997 |
| CCCCCCCCCCCCCCCCCCOP(=O)([O-])OC1CC[N+](C)(C)CC1 | 0.845 | 1.06 |
| O=C(Nc1ccc(OC(F)(F)F)cc1)c1sccc1NCc1ccnc2ccccc12 | 1.76 | 1.99 |
| COc1cc(/C=C/C(=O)N2CCN(CC(=O)N3CCCC3)CC2)cc(OC)c1OC | 0.866 | 0.974 |
| CC(COc1ccccc1)N(CCCl)Cc1ccccc1 (stereo not given) | 1.18 | 1.1 |
| Nc1ncn([C@@H]2O[C@H](CO)[C@@H](O)[C@H]2O)c(=O)n1 | 0.654 and 0.464 and 1.01 | 1.26 and 0.687 and 1.13 |
| COc1ccc(CN(CCN(C)C)c2ccccn2)cc1 | 0.875 and 0.866 | 0.972 and 0.699 |
| CCCNC(C)C(=O)Nc1ccccc1C (stereo not given) | 1.17 and 1.01 and 0.968 | 0.959 and 0.999 and 0.918 |
| CNc1ncnc2c1ncn2[C@H]1C[C@H](OP(=O)(O)O)[C@@H](COP(=O)(O)O)O1 | 0.938 | 0.718 |
| CCSC(=N)N | 1.02 | 1.19 |
| Cc1c(-c2ccnn2C)cc(C(=O)NCc2ccc(S(C)(=O)=O)cn2)c(=O)n1-c1cccc(C(F)(F)F)c1 | 0.918 | 0.966 |
| CC(=O)c1ccc(S(=O)(=O)NC(=O)NC2CCCCC2)cc1 | 1.02 | 0.908 |
| CC(C)(C)c1[nH]cnc1/C=c1\[nH]c(=O)/c(=C/c2ccccc2)[nH]c1=O | 0.369 | 0.395 |
| Cc1scc2c1N(C(=O)CN1CCN(C)CC1)c1ccccc1NC2=O | 1.05 and 0.898 | 1.04 and 1.1 |
| COc1cc(C(=O)O)cc(OC)c1O | 1.06 | 1.08 |

| Structure (SMILES) | PER2::LUC luminescence (time after treatment 24 h) | PER2::LUC luminescence (time after treatment 30 h) |
| --- | --- | --- |
| Cc1cc2c(cc1Cl)N(C(=O)Nc1ccc(Oc3cccnc3C)nc1)CC2 | 0.924 | 1.03 |
| O=C(N[C@@H](Cc1ccccc1)C(=O)CCl)OCc1ccccc1 | 1.06 | 1.11 |
| CNC(=O)CN(CCN(CCN(CC(=O)O)CC(=O)NC)CC(=O)O)CC(=O)O.O.[Gd] | 1.08 | 1.05 |
| CN(C)CCC(c1ccc(Cl)cc1)c1ccccn1 (single isomer, unassigned; (+)) | 0.963 | 0.902 |
| O=C1C[C@@H](c2ccc(O)c(O)c2)Oc2cc(O[C@@H]3O[C@H](CO)[C@@H](O)[C@H](O)[C@H]3O)cc(O)c21 | 1.05 | 1.01 |
| Cn1c(=O)cc(N2CCC[C@@H](N)C2)n(Cc2cc(F)ccc2C#N)c1=O | 1.07 and 0.956 | 1.03 and 1 and 0.915 |
| Cn1c(=O)c2nc[nH]c2n(C)c1=O | 1.07 | 0.99 |
| CC(COc1ccc(/C=C/c2ccccc2)cc1)[N+](C)(C)C (stereo not given) | 0.936 | 1.02 |
| CC[C@]1(O)C[C@@H]2CN(CCc3c([nH]c4ccccc34)[C@@](C(=O)OC)(c3cc4c(cc3OC)N(C)[C@H]3[C@@](O)(C(N)=O)[C@H](O)[C@]5(CC)C=CCN6CC[C@]43[C@@H]65)C2)C1 | 0.657 | 0.34 |
| COc1cc2cc3c4cc(OC)c(OC)cc4cc[n+]3c(C)c2cc1OC | 1.1 | 1.08 |
| c1ccc(C2CN3CCSC3=N2)cc1 (stereo not given) | 0.842 and 0.284 | 0.734 and 0.346 |
| C=C1c2cccc(O)c2C(=O)C2=C(O)[C@]3(O)C(=O)C(C(N)=O)=C(O)[C@@H](N(C)C)[C@@H]3[C@@H](O)[C@H]12 | 1.06 and 1.19 | 0.955 and 1.02 |
| COc1ccc2nc(/C=C/c3cccc([N+](=O)[O-])c3)n(-c3ccc(C(=O)O)cc3)c(=O)c2c1 | 1.05 | 1.01 |
| NCCCC[C@H](N[C@@H](CCc1ccccc1)C(=O)O)C(=O)N1CCC[C@H]1C(=O)O | 0.954 and 0.75 | 0.879 and 0.869 |
| NC1(C(=O)O)CCCC1 | 0.961 | 0.889 |
| Cc1cc2nc(NCCCO)n(CC(=O)c3cc(C(C)(C)C)c(O)c(C(C)(C)C)c3)c2cc1C | 1.06 | 0.919 |
| c1ccc2c(c1)CCC[C@H]2Nc1nc2ccccc2[nH]1 | 1.01 | 0.874 |
| O=C(Nc1cccc2c(=O)cc(-c3nnn[nH]3)oc12)c1ccc(OCCCCc2ccccc2)cc1 | 0.99 | 1.04 |
| CCO[C@H]1CN(C2CCC(O)(c3ccc4c(c3)OCO4)CC2)C[C@@H]1NC(=O)CNC(=O)c1cccc(C(F)(F)F)c1 (stereo not given in full) | 0.97 | 0.88 |
| COc1ccccc1C(=O)Nc1cc2c(cc1N1CCCCC1)n(C)c(=O)n2C | 0.765 | 0.829 |
| CC(C)(C)NC[C@H](O)COc1nsnc1N1CCOCC1 | 0.98 and 0.912 and 0.922 | 0.883 and 0.832 and 0.805 |
| C[C@]12CCC(=O)C=C1CC[C@@H]1[C@@H]2[C@@H](O)C[C@@]2(C)[C@H]1CC[C@]2(O)C(=O)COC(=O)CCC(=O)O | 0.717 | 1.02 |

| Structure (SMILES) | PER2::LUC luminescence (time after treatment 24 h) | PER2::LUC luminescence (time after treatment 30 h) |
| --- | --- | --- |
| COc1cccc(NC(=O)/C=C/c2ccc(Cl)cc2)c1 | 1.39 | 1 |
| Cc1cc(OCCN2CCOCC2)nn1-c1ccc2ccccc2c1 | 1.02 | 0.944 |
| Oc1ccccc1O | 0.845 | 0.928 |
| COc1cc(OC)c2c(=O)[nH]c(-c3cc(C)c(OCCO)c(C)c3)nc2c1 | 0.837 | 0.884 |
| CO/N=C(\C(=O)N[C@@H]1C(=O)N2C(C(=O)O)=C(CSc3nc(=O)c(O)nn3C)CS[C@H]12)c1csc(N)n1 | 0.972 and 1.09 | 0.945 and 1.1 |
| C[C@@]12CCc3occc3[C@H]1CC[C@@]13C[C@@H](CC[C@H]12)[C@@](O)(CO)C3 | 1.06 | 0.733 |
| NCCOc1cc(C(=O)Nc2cc(OCCN)c3ccccc3n2)nc(C(=O)Nc2cc(OCCN)c3ccccc3n2)c1 | 0.954 | 0.971 |
| O=C(O)CS | 0.991 | 0.939 |
| CCCCOC(=O)NS(=O)(=O)c1sc(CC(C)C)cc1-c1ccc(Cn2c(CC)nc3c(C)cc(C)nc32)cc1 | 0.943 | 0.692 |
| O=C(c1cccc(Cl)c1F)N1CCN(Cc2cccc(Nc3nccs3)n2)CC1 | 0.793 | 0.764 |
| COc1ccc(CCN(C)CCCC(C#N)(c2cc(OC)c(OC)c(OC)c2)C(C)C)cc1OC (racemic) | 0.987 | 0.783 |
| CC(C)[C@H]1C(=O)N[C@@H](CCCNC(=N)N)C(=O)NCC(=O)N[C@@H](CC(=O)O)C(=O)N[C@H](Cc2ccccc2)C(=O)N1C | 0.772 | 0.692 |
| FC(F)(F)c1ccccc1-n1ccnc1 | 0.975 | 0.907 |
| NCC(O)c1ccc(O)c(O)c1 (racemic) | 1.04 | 1.12 |
| COc1cc(-c2coc3cc(O)c(OC)c(O)c3c2=O)cc(O)c1OC | 1.37 | 1.39 |
| CCOC(=O)OC(C)OC(=O)[C@@H]1N2C(=O)[C@@H](NC(=O)[C@H](N)c3ccccc3)[C@H]2SC1(C)C (stereo not given in full) | 1.02 | 0.972 |
| NC(CCCP(=O)(O)O)C(=O)O (racemic) | 1.03 and 0.907 | 1.02 and 0.974 |
| CN1C(=O)C[C@H](C(=O)O)[C@H]1c1cccnc1 | 1.08 | 1.07 |
| CCOC(=O)[C@H](CCc1ccccc1)N[C@H]1CCc2ccccc2N(CC(=O)O)C1=O | 0.42 | 0.758 |

From the supplement of paper PMC9334596
